# Measurements from patent US20220073613A1, “ACTIVATABLE MASKED ANTI-CTLA4 BINDING PROTEINS” (Xilio Development, Inc., priority 2018, published 2022).
# B1: Antibody 2-10: masked Antibody 2-6: mask CPFPALELC, non-cleavable peptide GSGGSG; SEQ ID NO: 427 and 421; negative control (protein)
# light: ACPFPALELCGGGSSGGSGGSGGSGSGGEIVLTQSPDFQSVTPKEKVTITCSANSALSYMYWYQQKPDQSPKLWVHGTSNLASGVPSRFSGSGSGTDFTLTINSLEAEDAATYYCHHWSNTQWTFGGGTKVEIKRTVAAPSVFIFPPSDEQLKSGTASVVCLLNNFYPREAKVQWKVDNALQSGNSQESVTEQDSKDSTYSLSSTLTLSKADYEKHKVYACEVTHQGLSSPVTKSFNRGEC
# heavy: QVQLVQSGAEVKKPGSSVKVSCKASGYTFTNYFMNWVRQAPGQGLEWMGRVDPEQGRADYAEKFKKRVTITADKSTSTAYMELSSLRSEDTAVYYCARRAMDNYGFAYWGQGTLVTVSS[human IgG1 constant region with changes left out here]
# What was measured:
# [1] = In vivo cleavage detection in tumor, liver, kidney, spleen and plasma (western blot) and CTLA4 binding of recovered antibody; design: species or system B-hCTLA-4 transgenic mice; conditions: MB49-bearing B-hCTLA4 transgenic mice; CTLA4-coated MSD plate
# Description: B-hCTLA-4 transgenic female mice were purchased from Biocytogen and were 8-10 weeks old at the start of study. MC38 colorectal tumor cells (5×10^5 cells per mouse), MB49 bladder cancer cells (1×10^6 cells per mouse) or MCA205 fibrosarcoma cells (1×10^6 cells per mouse) were subcutaneously into the right flank of each mouse. Upon reaching ˜250-500 mm^3 sized tumors (day 0), the mice received a single 10 mg/kg intraperitoneal dose of indicated antibodies. Tumor, liver, kidney, spleen and plasma harvested on day 4 for analysis of cleavage by western blot.
# For plasma samples, a direct western blot approach is utilized by separating equal volumes of denatured plasma (1-2 μL input) on a gradient criterion precast gel (BioRad). Separated proteins were then transferred into a nitrocellulose membrane using Turbo Transblot system (BioRad). Membranes were than developed using standard methods for anti-human kappa light chain reactivity with an HRP conjugated antibody (ab202549). Cleavage is assessed visually as the cleaved light chain migrates lower than the un-cleaved light chain with a mass difference of 2 kD.
# Protein lysates from tumor, liver, spleen and kidney were generated using Tissue Lyser II (Qiagen) bead homogenizer in RIPA buffer (Pierce, 87788) supplemented with protease and phosphatase inhibitors (Thermo Fisher, 78442). Protein concentrations were determined by BCA assay and 3 mgs of tissue lysate was subjected to immunoprecipitation with biotin conjugated anti-human kappa light chain antibody (LSBio, LS-C351451-500) and streptavidin magnetic beads (Pierce, 88816). Proteins were eluted in 50 μL 10 mM Glycine (pH 2) and neutralized with 1M Tris (pH 8) prior to western blot detection of human kappa light chain as described above.
# Studies were also carried out where IgG levels of each antibody administered to MB49-bearing mice was quantified by an ELISA assay and then each sample was assayed in a 3-fold dilution series starting at 1 μg/mL for spleen or 0.04 μg/mL for kidney and liver tissue, on a CTLA4-coated MSD plate to assess CTLA4 binding. These studies included a non-masked parental antibody (Antibody 2-6), masked and cleavable antibodies (e.g., Antibody 2-14 and Antibody 2-16), and a masked but non-cleavable antibody (Antibody 2-10). FIG. 24D is an SDS-PAGE analysis showing the percentage (%) of product cleaved for Antibody 2-14. […] FIG. 24F depicts a heat map of the in vitro cleavage of cleavable peptide substrates by a panel of exemplary proteases.
# [2] = biological target: T1, human CTLA4-Fc (Homo sapiens, UniProt P16410); experiment: Low density antigen binding ELISA, with or without protease activation
# T1 construct: purchased R&D Systems 7268-CT
# [3] = tested on: human conditioned media from human tumors (colon tumors, lung tumors); experiment: Ex vivo cleavage in conditioned media from human tumors, ELISA, SDS-PAGE and MS
molecule,measurement,setting,value
B1,"binding to CTLA4 of antibody isolated from plasma, kidney, liver, or spleen",[1],reduced binding as compared to the unmasked parental Antibody 2-6
same,Occlusion,"[2]; Table 7, absence of protease, EC50 masked antibody / EC50 Antibody 2-6",43
same,Occlusion,"[2]; Table 13, Protease −",43
same,percentage (%) of cleavage based on MS data,[3]; colon2 4sept colon tumor sample,5.7%
same,"abundance of intact antibody, mass spectrometry",[3]; cultured in RPMI as a control,97.5%
same,"abundance of intact antibody, mass spectrometry",[3]; cultured in colon tumor conditioned media (colon2 4 sept),94.3%
